# Reference: PubChem BioAssay AID504333 (National Center for Advancing Translational Sciences (NCATS), 2011)
# In all, about 360,000 compounds went through this assay and about 16,000 (4.4%) were called active. The shares of active, inactive and inconclusive entries below differ from those in the screen. Calls come from the whole dose curve; as a rule, active = well fitted inhibition curve with a large enough effect; inconclusive = small, poorly fitted or top-dose-only effect; inactive = no such curve, though single readings can be large or run the other way. A potency beside an inconclusive call is a rough fit, not a confirmed value.
# Target: Bromodomain adjacent to zinc finger domain protein 2B (Homo sapiens) (UniProt Q9UIF8)
# Assay: qHTS Assay for Inhibitors of BAZ2B; note: nearly all actives have a fitted effect of over 60% in size
# Conditions: AlphaScreen BAZ2B-H3K14Ac peptide displacement; series mostly up to 114 µM
# Summary of the method: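 Compounds, titrated to a top concentration of 110 uM, were incubated 30 min at room temperature with preformed BAZ2B/acetyl-K14 H3 peptide complex (50 nM each). Proximity signal was measured by AlphaScreen after 20 min with beads.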
# Potency is the fitted concentration of half-maximal effect; tags give direction and shape of the fitted curve.
# Chain of UniProt Q9UIF8 (Q9UIF8 whole entry, looked up, the tested form may be a part): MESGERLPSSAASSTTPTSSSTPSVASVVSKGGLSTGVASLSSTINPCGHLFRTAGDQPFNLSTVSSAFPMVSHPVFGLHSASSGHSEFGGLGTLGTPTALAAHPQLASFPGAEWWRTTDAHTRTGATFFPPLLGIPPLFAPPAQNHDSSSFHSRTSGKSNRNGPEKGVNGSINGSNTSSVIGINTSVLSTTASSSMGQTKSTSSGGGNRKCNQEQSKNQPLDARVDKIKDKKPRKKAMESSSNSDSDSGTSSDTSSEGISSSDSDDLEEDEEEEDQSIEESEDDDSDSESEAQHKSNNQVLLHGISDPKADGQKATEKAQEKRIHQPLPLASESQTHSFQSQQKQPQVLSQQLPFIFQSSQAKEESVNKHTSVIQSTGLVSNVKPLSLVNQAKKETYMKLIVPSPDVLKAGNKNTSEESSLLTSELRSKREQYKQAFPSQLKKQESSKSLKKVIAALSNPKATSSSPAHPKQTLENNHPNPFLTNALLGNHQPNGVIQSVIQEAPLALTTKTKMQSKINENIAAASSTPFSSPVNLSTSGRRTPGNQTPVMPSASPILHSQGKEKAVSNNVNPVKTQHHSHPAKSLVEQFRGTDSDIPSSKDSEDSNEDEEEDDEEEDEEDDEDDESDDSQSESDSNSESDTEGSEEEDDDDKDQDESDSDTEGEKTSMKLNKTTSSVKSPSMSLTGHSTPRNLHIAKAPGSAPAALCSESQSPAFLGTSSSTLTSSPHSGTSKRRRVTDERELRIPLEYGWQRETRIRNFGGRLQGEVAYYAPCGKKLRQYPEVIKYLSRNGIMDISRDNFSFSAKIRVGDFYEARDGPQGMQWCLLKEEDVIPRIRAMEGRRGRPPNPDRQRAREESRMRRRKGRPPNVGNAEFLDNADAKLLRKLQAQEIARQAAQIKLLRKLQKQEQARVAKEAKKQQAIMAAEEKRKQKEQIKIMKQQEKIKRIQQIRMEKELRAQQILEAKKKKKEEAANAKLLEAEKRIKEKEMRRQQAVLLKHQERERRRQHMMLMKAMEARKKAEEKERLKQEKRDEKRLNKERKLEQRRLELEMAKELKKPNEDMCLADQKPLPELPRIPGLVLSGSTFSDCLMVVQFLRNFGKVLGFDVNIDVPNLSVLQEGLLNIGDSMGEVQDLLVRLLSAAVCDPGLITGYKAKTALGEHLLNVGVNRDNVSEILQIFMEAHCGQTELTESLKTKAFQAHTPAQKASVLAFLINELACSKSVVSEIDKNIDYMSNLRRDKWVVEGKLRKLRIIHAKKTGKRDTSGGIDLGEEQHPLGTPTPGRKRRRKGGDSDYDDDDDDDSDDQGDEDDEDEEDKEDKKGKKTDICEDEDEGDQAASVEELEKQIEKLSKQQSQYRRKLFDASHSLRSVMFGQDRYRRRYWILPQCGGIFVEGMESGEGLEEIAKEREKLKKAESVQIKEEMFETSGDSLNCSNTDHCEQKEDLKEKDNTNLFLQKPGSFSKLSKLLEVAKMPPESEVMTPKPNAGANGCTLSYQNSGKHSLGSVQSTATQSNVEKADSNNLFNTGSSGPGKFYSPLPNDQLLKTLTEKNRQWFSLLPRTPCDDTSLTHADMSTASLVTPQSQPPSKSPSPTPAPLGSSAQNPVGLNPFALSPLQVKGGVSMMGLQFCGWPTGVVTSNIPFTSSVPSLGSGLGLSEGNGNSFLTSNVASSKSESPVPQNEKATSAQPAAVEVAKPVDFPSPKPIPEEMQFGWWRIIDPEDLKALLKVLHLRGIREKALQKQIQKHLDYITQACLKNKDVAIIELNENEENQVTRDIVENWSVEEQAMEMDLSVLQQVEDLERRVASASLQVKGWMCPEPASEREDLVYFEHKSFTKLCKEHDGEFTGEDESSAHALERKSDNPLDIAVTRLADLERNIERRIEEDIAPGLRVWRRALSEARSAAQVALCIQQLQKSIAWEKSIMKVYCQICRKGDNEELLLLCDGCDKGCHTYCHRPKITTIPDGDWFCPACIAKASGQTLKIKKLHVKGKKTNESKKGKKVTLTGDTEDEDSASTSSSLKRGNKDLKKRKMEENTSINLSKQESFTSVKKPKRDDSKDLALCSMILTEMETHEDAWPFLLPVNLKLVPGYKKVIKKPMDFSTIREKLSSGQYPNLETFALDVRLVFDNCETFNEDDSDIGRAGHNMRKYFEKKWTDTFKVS
row,SMILES,Potency
1,CCOC(=O)c1c(-c2ccc(Br)cc2)csc1NC(=O)c1ccc(F)cc1,inactive
2,CC1(OC(=O)c2ccc(Cl)nc2)C(=O)C=C2C=C3CCCN3C=C2C1=O (stereo not drawn),"inconclusive: 79.4 µM [inhibitor, partial curve]"
3,O=C1C=C(Nc2ccccc2O)c2ccccc2C1=O,active: 44.7 µM
4,Cc1ccc(C(=O)CCC(=O)Nc2ncccc2O)cc1,active: 79.4 µM
5,CN(CC(=O)Nc1cccc(F)c1)C(=O)CN1c2cccc3cccc(c23)S1(=O)=O,"inconclusive: 44.7 µM [inhibitor, partial curve]"
6,CCOC(=O)C1=C(O)/C(=C\c2cc(C)n(-c3ccc(F)cc3)c2C)N=C1C,"inconclusive: 50.1 µM [inhibitor, partial curve]"
7,Cc1cccc(-c2nc3c(c(SCC(=O)N4CCOCC4)n2)Cc2c(CO)cnc(C)c2O3)c1,"inconclusive: 7.94 µM [inhibitor, full curve, poor fit]"
8,c1ccc(CCNc2nc(-c3cccnc3)cs2)cc1,"inconclusive: 89.1 µM [inhibitor, single point]"
9,Cc1ccc(C2(C)NC(=O)N(CC(=O)NCCC3=CCCCC3)C2=O)cc1 (stereo not drawn),inactive
10,CC(C)c1ccc(NC2CCCN(C(=O)c3ccnc(Cl)c3)C2)cc1 (stereo not drawn),"inconclusive: 31.6 µM [inhibitor, partial curve]"
11,CCCc1nc(-c2ccccc2)c(-c2ccc(OC)c(OC)c2)c(=O)[nH]1,"inconclusive: 89.1 µM [inhibitor, single point]"
12,COc1ccc(S(=O)(=O)N(C)C)cc1NC(=O)CSC(C)C(=O)Nc1cc(C)on1 (stereo not drawn),"inconclusive: 89.1 µM [inhibitor, single point]"
13,CSc1nc2ccc(NC(=O)c3ccco3)cc2s1,inactive
14,Cc1cc(Cl)ccc1OCCCC(=O)NCCCn1ccnc1,"inconclusive: 79.4 µM [inhibitor, single point]"
15,CNS(=O)(=O)c1cn(CC(=O)N2CCN(c3ccccc3F)CC2)cc1S(=O)(=O)NC,inactive
16,CC(=O)Nc1ccc(-c2nnn(CC(=O)c3ccc(F)cc3)n2)cc1Cl,inactive
17,COc1cccc(NC(=O)CSc2nc3ccc(NC(=O)c4cccs4)cc3s2)c1,inactive
18,Cc1ccc(C(=O)CC2(O)C(=O)N(Cc3ccccc3F)c3ccccc32)cc1 (stereo not drawn),"inconclusive: 79.4 µM [inhibitor, partial curve]"
19,Oc1ccc(CNc2ccc(F)cc2)c2cccnc12,active: 25.1 µM
20,CN(C)CCOc1ccccc1-c1ccccc1,active: 25.1 µM
21,N=C1N(/N=C/c2ccccc2)C(=Nc2ccccc2)C(=S)N1c1ccccc1,"inconclusive: 3.98 µM [inhibitor, full curve, poor fit]"
22,O=C(N/N=C\c1ccc(Cl)cc1Cl)c1sccc1-n1cccc1,"inconclusive: 79.4 µM [inhibitor, single point]"
23,O=C(c1cc(Br)c[nH]1)N1CCSCC1,inactive
24,O=C(CCN1C(=O)/C(=C/c2ccccc2Cl)SC1=S)Nc1ccccn1,"inconclusive: 7.08 µM [inhibitor, full curve]"
25,CCN(CC)c1ccc(/C=N/N2CCOCC2)cc1,"inconclusive: 89.1 µM [inhibitor, single point]"

row,SMILES,Potency
1,CCOc1ccccc1NC(=O)NCc1ccccc1F,"inconclusive: 100 µM [inhibitor, partial curve]"
2,CN(C(=O)c1ccno1)c1nnc(-c2ccccn2)s1,active: 50.1 µM
3,CCN(CC)CCNC(=O)c1c(C)oc2ncn(C)c(=O)c12,inactive
4,O=C(NCCOC(=O)C1COc2ccccc2O1)c1cccnc1 (stereo not drawn),"inconclusive: 89.1 µM [inhibitor, single point]"
5,O=C(COc1ccc(F)cc1)OCCN1CCOCC1,"inconclusive: 79.4 µM [inhibitor, single point]"
6,Cn1c(SCC(=O)N2c3ccccc3Sc3ccc(Cl)cc32)nnc1-c1ccco1,"inconclusive: 79.4 µM [inhibitor, single point]"
7,O=C(O)c1ccc(CSc2nnc(COc3ccccc3)o2)cc1,inactive
8,Cc1cc(C)n(C(=O)/C=C/c2cccs2)n1,active: 56.2 µM
9,CC(C)(Oc1ccc(Cl)cc1)C(=O)NCc1ccc(S(N)(=O)=O)cc1,"inconclusive: 56.2 µM [inhibitor, partial curve]"
10,COc1ccc(-n2cc(CNCc3cnc4ccccn34)c(-c3cccc(F)c3)n2)cc1,active: 44.7 µM
11,Cc1cccc(NC(=S)N(Cc2cccs2)Cc2cc3cc(C)cc(C)c3[nH]c2=O)c1,"inconclusive: 79.4 µM [inhibitor, single point]"
12,COC(=O)N/N=C/c1sc(N2CCCCC2)nc1-c1cccs1,"inconclusive: 56.2 µM [inhibitor, partial curve, poor fit]"
13,O=C(O)COc1ccc(S(=O)(=O)c2ccc(OCC(=O)O)cc2)cc1,"inconclusive: 89.1 µM [inhibitor, single point]"
14,CC(C)(C)N=C1C([N+](=O)[O-])=CC=C2C1=NC1(CCCCC1)N2O,active: 5.62 µM
15,Cc1cccc(NC(=O)C2C3CCC4C(CCC32)C4(Cl)Cl)c1 (stereo not drawn),inactive
16,CN1CCN(C2=Cc3ccccc3Sc3cc(F)ccc32)CC1,"inconclusive: 50.1 µM [inhibitor, partial curve]"
17,O=C(c1cc([N+](=O)[O-])ccc1N1CCCCC1)N1CCc2ccccc21,"inconclusive: 39.8 µM [inhibitor, partial curve]"
18,O=C(NC(=S)Nc1ccccc1N1CCOCC1)c1ccc(Br)cc1,"inconclusive: 20 µM [inhibitor, full curve, poor fit]"
19,CCOC(=O)C1CCN(Cc2ccc(O)c(OC)c2)CC1,"inconclusive: 89.1 µM [inhibitor, single point]"
20,COC(=O)c1ccccc1NC(=O)C1=CC(c2ccc(C)cc2)=NS(=O)(=O)N1C,"inconclusive: 14.1 µM [inhibitor, full curve, poor fit]"
21,Cn1c(SCc2ccccc2)nnc1-c1ccco1,inactive
22,Cc1onc(C(=O)NN)c1C(=O)Nc1ncc(C(F)(F)F)cc1Cl,"inconclusive: 79.4 µM [inhibitor, single point]"
23,O=C(c1c(F)cccc1F)N(Cc1ccccn1)C1CC1,active: 79.4 µM
24,C=CCc1cccc(C2Nc3ccccc3C(=O)N2O)c1O (stereo not drawn),"inconclusive: 89.1 µM [inhibitor, single point]"
25,O=C(c1ccoc1)N1CCC2(CC1)Oc1ccc(Cl)cc1C(=O)C21CC(c2ccc(Cl)cc2)=NO1 (stereo not drawn),"inconclusive: 79.4 µM [inhibitor, partial curve]"

row,SMILES,Potency
1,COc1ccc(Cc2n[nH]c(=S)n2N)cc1OC,"inconclusive: 89.1 µM [inhibitor, single point]"
2,COc1ccc(N(CC(=O)N2CCOCC2)S(C)(=O)=O)c(OC)c1,"inconclusive: 89.1 µM [inhibitor, single point]"
3,COc1ccccc1/C=C/c1nc(S(=O)(=O)c2ccccc2)c(N(C)C)o1,active: 70.8 µM
4,O=C(OCCCOc1ccc(F)cc1)c1ccc(O)cc1O,inactive
5,C/C(=N\NC(N)=S)c1cc(-c2ccccc2)c(-c2ccccc2)s1,"inconclusive: 14.1 µM [inhibitor, full curve]"
6,CC1(C)NC(=O)N(CCOCCOc2ccccc2-c2ccccc2)C1=O,inactive
7,CSc1cccc(NC(=S)N2CCCN(Cc3ccc(F)cc3)C2)c1,"inconclusive: 56.2 µM [inhibitor, partial curve]"
8,O=C(Cn1nc(C(=O)O)c2ccccc2c1=O)Nc1ccc(F)cc1F,inactive
9,COc1ccc(/C=N/Nc2ncnc3sc(C)c(C)c23)cc1,"inconclusive: 39.8 µM [inhibitor, full curve]"
10,CCOC(=O)c1c(CSC(=N)N)n(-c2ccccc2)c2cc(Br)c(OC(C)=O)cc12,"inconclusive: 39.8 µM [inhibitor, partial curve]"
11,O=C(Nc1ccc2oc(=O)ccc2c1)c1ccc(-c2cccc([N+](=O)[O-])c2)o1,active: 35.5 µM
12,CCc1nn2c(=O)cc(COc3ccc(/C=C4\C(=N)N5N=C(CC(C)C)SC5=NC4=O)cc3)nc2s1,"inconclusive: 100 µM [inhibitor, single point]"
13,O=C(CNC1CCCC1)Nc1cc(Cl)ccc1[N+](=O)[O-],active: 56.2 µM
14,CC1CCCCC1NC(=O)COC(=O)c1ccc2c(c1Cl)C(=O)c1ccccc1C2=O (stereo not drawn),"inconclusive: 79.4 µM [inhibitor, single point]"
15,COCCn1c(SCC(=O)Nc2cccc(F)c2)nc2c(c1=O)SCC2,inactive
16,COC(=O)CN1C(=S)N(c2ccc(Cl)cc2)C(=O)C1CC(=O)Nc1ccc(Cl)cc1 (stereo not drawn),"inconclusive: 100 µM [inhibitor, single point]"
17,Cc1ccc(NC2CCCN(C(=O)c3cccc(-c4ncc[nH]4)c3)C2)cc1C (stereo not drawn),"inconclusive: 44.7 µM [inhibitor, partial curve]"
18,CC(=O)c1ccc(NC(=O)CCc2c(C)nc3c(c(C)nn3-c3ccc(C)cc3)c2C)cc1,"inconclusive: 79.4 µM [inhibitor, single point]"
19,Cc1occc1-c1nnc(SCC(=O)Nc2ccccc2)n1CCc1ccccc1,inactive
20,CC(=O)Nc1nnc(SCC(=O)N2CCc3ccccc32)s1,inactive
21,Cc1ccc(-c2cnc(C3CC3)o2)cc1S(=O)(=O)Nc1ccccc1,"inconclusive: 50.1 µM [inhibitor, partial curve]"
22,Cc1cc(/C=C2\SC(=S)NC2=O)c(C)n1C,active: 44.7 µM
23,COc1ccc(N2CCN(C(=O)CCCn3c(=S)[nH]c4cc5c(cc4c3=O)OCO5)CC2)cc1,inactive
